PubChem BioAssay AID1030 (National Center for Advancing Translational Sciences (NCATS), 2008)
In all, about 220,000 compounds went through this assay and about 16,000 (7.3%) were called active. The shares of active, inactive and inconclusive entries below differ from those in the screen. Calls come from the whole dose curve; as a rule, active = well fitted inhibition curve with a large enough effect (not every such curve was filed as active); inconclusive = small, poorly fitted or top-dose-only effect, or another doubt; inactive = no such curve, though single readings can be large or run the other way. Potencies of inconclusive entries are doubtful fits and often do not repeat.

Target: Aldehyde dehydrogenase 1A1 (Homo sapiens) (UniProt P00352)
UniProt P00352, sequence (P00352 whole entry, looked up): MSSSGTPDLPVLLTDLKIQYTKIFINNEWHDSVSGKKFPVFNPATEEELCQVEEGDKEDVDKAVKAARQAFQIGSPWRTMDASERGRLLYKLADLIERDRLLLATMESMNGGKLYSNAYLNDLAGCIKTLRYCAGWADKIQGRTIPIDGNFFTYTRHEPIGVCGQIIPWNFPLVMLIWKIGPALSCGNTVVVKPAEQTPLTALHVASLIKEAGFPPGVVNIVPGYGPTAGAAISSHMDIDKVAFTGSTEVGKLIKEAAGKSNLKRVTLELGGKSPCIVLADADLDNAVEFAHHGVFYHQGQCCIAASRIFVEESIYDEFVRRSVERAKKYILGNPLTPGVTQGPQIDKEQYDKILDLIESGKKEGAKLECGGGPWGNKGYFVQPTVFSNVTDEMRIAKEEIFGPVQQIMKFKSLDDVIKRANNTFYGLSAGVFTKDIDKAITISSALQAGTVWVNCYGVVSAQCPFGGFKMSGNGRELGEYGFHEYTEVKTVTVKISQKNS
Assay: qHTS Assay for Inhibitors of Aldehyde Dehydrogenase 1 (ALDH1A1);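 for activity, negative = inhibition: plate controls were no enzyme wells and a reference inhibitor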
Conditions: Purified ALDH1A1, NADH fluorescence, propionaldehyde substrate; series mostly up to 75.3 µM
Potency is the fitted concentration of half-maximal effect; tags give direction and shape of the fitted curve.

Potency, inactive:
CCOc1ccccc1CNC(=O)c1ccc(Sc2ccc(Cl)cc2)c(NC(C)=O)c1
O=C(Nc1ccc(OC(F)F)c(Cl)c1)c1cccc(OC(F)F)c1
CCCc1nc(C)c(-c2ccc(OC)c(OC)c2)c(=O)[nH]1
Cc1onc(-c2c(F)cccc2Cl)c1C(=O)N1CCc2ccccc2C1
CCc1nnc(NC(=O)C2(C)COC(c3ccc(OC)cc3)OC2)s1 (configuration not stated)
CC(C)C(C)NC(=O)COC(=O)c1cccc(C(=O)OCC(=O)NC(C)C(C)C)n1 (configuration not stated)
CSCC[C@H](NC(=O)C1CCN(S(=O)(=O)c2ccc(C)cc2)CC1)C(=O)NC1CCS(=O)(=O)C1 (some centres not stated)
COc1ccccc1-n1cc(CN2CCCC(CO)(Cc3cccc(Cl)c3)C2)cn1 (configuration not stated)
Cc1ccc(-c2n[nH]c(=S)n2/N=C/c2cc3c(cc2[N+](=O)[O-])OCO3)cc1
O=c1c(-c2n[nH]c(=S)n2-c2ccccc2)cccn1Cc1cccc(Cl)c1
CCCCNS(=O)(=O)/C=C/c1ccccc1
O=C(NNc1cc(N2CCOCC2)nc(N2CCOCC2)n1)c1ccc(Cl)cc1Cl
CCOC(=O)c1c(NC(=O)c2cc(-c3ccc(Cl)s3)nc3ccccc23)sc(C(N)=O)c1C
O=C(O)c1cc([N+](=O)[O-])cc2c1nnn2O
O=C(COC(=O)c1ccccc1N1C(=O)C2C3CCC(C3)C2C1=O)c1ccccc1 (configuration not stated)

Potency, active:
CSc1ccc(S(=O)(=O)NCCSC(C)(C)C)cc1 7.94 µM
O=C(OCC(=O)c1c[nH]c2ccccc12)c1ccc([N+](=O)[O-])s1 0.708 µM
O=C(Cc1cccs1)N1CCN(c2ccc([N+](=O)[O-])cc2)CC1 25.1 µM
O=S(=O)(Nc1ccc(S(=O)(=O)Nc2nccs2)cc1)c1ccc2c(c1)OCCO2 12.6 µM
Cc1ccc(N=C2NC(=O)C(CC(=O)NCc3ccccc3)S2)cc1C (configuration not stated) 25.1 µM
CCN1C(=O)c2cccc3c(NC(=O)c4cccc(N5C(=O)CCC5=O)c4)ccc1c23 2 µM
Cc1nn(-c2ccccc2)c(Cl)c1/C=C(\C#N)C(=O)NC(C)C 14.1 µM
CCOC(=O)c1oc2ccccc2c1CN1CCOCC1 11.2 µM
CCOC(=O)c1c(NC(=O)C2=C(C)NC(=S)NC2c2ccc(F)cc2F)sc(C)c1C (configuration not stated) 11.2 µM
CCOC(=O)c1cnc(SC2CCc3ccccc3C2=O)nc1N (configuration not stated) 31.6 µM
O=C(c1ccco1)[C@@H]1[C@@H]2C(=O)N(c3ccc(Br)cc3)C(=O)[C@@H]2C2c3ccccc3C=CN21 (some centres not stated) 11.2 µM
CCCN1C=CC(=C2C(=O)c3ccccc3C2=O)C=C1 14.1 µM

Potency, inconclusive:
Cc1ccc(C)c(OCc2nc(-c3cccnc3)no2)c1 39.8 µM [inhibitor, single point]
O=C(CSc1nnc(Cc2ccccc2)o1)Nc1ccc2c(c1)OCO2 8.91 µM [inhibitor, partial curve]
CCCCC(=O)Nc1ccc(C(=O)c2ccccc2)cc1 31.6 µM [inhibitor, single point]
CN1CCN(CCOc2ccc(Cl)c(Cl)c2)CC1 39.8 µM [inhibitor, single point]
O=c1[nH]nc(SCc2nc3ccccc3s2)n1C1CC1 39.8 µM [inhibitor, single point]
Cc1ccc(S(=O)(=O)Nc2cc(C(=O)NCCN3CCCC3)ccc2N2CCCCC2)cc1 11.2 µM [inhibitor, partial curve]
N#Cc1ccsc1NC(=O)CN1CCN(S(=O)(=O)c2ccc3ccccc3c2)CC1 35.5 µM [inhibitor, single point]
CCOc1ccc(CNc2ccc3c(c2)ncn3C)cc1 39.8 µM [inhibitor, single point]
CC(Oc1cccc(F)c1)c1ccnc2nc(/N=C/N(C)C)nn12 (configuration not stated) 25.1 µM [inhibitor, partial curve]
CCn1nnnc1SCC(=O)c1cc(Cl)ccc1OC 31.6 µM [inhibitor, single point]
O=C(NCc1ccccn1)c1ccc2nc(-c3ccco3)c(-c3ccco3)nc2c1 8.91 µM [inhibitor, partial curve]
CCc1ccc2oc(-c3cc(N)ccc3O)nc2c1 22.4 µM [inhibitor, partial curve]
O=C(O)CCC(=O)N1CCc2cc(S(=O)(=O)NC3CCCc4ccccc43)ccc21 (configuration not stated) 25.1 µM [inhibitor, partial curve]
CCOC(=O)CSc1nc(N)c(C#N)c(-c2ccc(OCC)cc2)c1C#N 25.1 µM [inhibitor, single point]
Cc1cccc(CNc2ncnc3ccc(-c4ccccc4CN(C)C)cc23)c1 39.8 µM [inhibitor, single point]
COc1cccc(C(=O)C2CCCN(Cc3cccn3-c3ccccn3)C2)c1 (configuration not stated) 31.6 µM [inhibitor, single point]
O=C(c1ccco1)N1CCN(C(=O)c2cc3sccc3n2Cc2ccccc2)CC1 20 µM [inhibitor, partial curve]
O=C(N/N=C/c1cc([N+](=O)[O-])ccc1O)c1cc(-c2ccccc2)nc2ccccc12 39.8 µM [inhibitor, single point]
CC1CN(c2oc(-c3cccs3)nc2C#N)CC(C)O1 (configuration not stated) 28.2 µM [inhibitor, partial curve]
COc1ccc(-c2nc3cnc(OC)nc3n(CCc3ccccc3)c2=O)cc1 3.16 µM [inhibitor, partial curve]
CC(C)(/C=N/O)/[N+]([O-])=C/c1ccccc1C(F)(F)F 39.8 µM [inhibitor, single point]
Cc1cccc(CC2SC(N)=NC2=O)c1 (configuration not stated) 31.6 µM [inhibitor, single point]
N#Cc1nc(N2CCCC2)nc(N2CCCC2)n1 39.8 µM [inhibitor, single point]
O=C(CSC1CCCCC1)N1CCN(c2ccccc2)CC1 28.2 µM [inhibitor, single point]
CCN(CC)Cc1nc2c(c(=O)[nH]1)C1(CCCC1)Cc1ccccc1-2 22.4 µM [inhibitor, single point]
O=C1C(Cl)=C(N2CCN(Cc3ccccc3)CC2)C(=O)N1c1ccccc1 39.8 µM [inhibitor, single point]
O=c1[nH]c(N/N=C/c2ccccc2)nc2ccccc12 39.8 µM [inhibitor, single point]
CCN(CC)c1ccc(C(=O)OCC(=O)Nc2ccccc2-c2ccccc2)cc1 35.5 µM [inhibitor, partial curve]
CCOCc1nnc(NC(=O)CSCc2ccccc2)s1 39.8 µM [inhibitor, single point]
N#Cc1c(NC(=O)c2ccccc2)sc2c1CCCCC2 22.4 µM [inhibitor, partial curve]
CCNc1ncc2nc(-c3cc(F)cc(F)c3)c(=O)n(CCOC)c2n1 25.1 µM [inhibitor, partial curve]
CCCCOC(=O)COc1ccc(Cl)cc1Cl 39.8 µM [inhibitor, single point]
O=C1Nc2c(Br)cc(Br)cc2C1(O)N1CCOCC1 (configuration not stated) 39.8 µM [inhibitor, single point]
O=C(Cc1ccc(-n2cccc2)cc1)NC1CCCCCC1 25.1 µM [inhibitor, partial curve]
Cc1cccc2cc(CN(CC3CCCO3)C(=O)c3cccnc3)c3nnnn3c12 (configuration not stated) 20 µM [inhibitor, partial curve]
CCOc1nc(-c2ccccc2)ccc1-c1noc(COC)n1 37.7 µM [inhibitor, single point]
CC1(C)CC(C#N)(N2CCOCC2)CCO1 (configuration not stated) 22.4 µM [inhibitor, single point]
O=C1CSc2nc3ccccc3n21 22.4 µM [inhibitor, partial curve]
COC(=O)c1ccc(C2c3c(oc4ccc(F)cc4c3=O)C(=O)N2CCO)cc1 (configuration not stated) 31.6 µM [inhibitor, single point]
Cc1nc(C)c(C(=O)N/N=C/c2c[nH]c3ccccc23)s1 39.8 µM [inhibitor, single point]
COc1ccc(-c2nc3cnc(N4CCNCC4)nc3n(C3CC3)c2=O)cc1 23.8 µM [inhibitor, partial curve]
CN(C)c1ccc(/C=N/NC(=O)CSc2ccccn2)cc1 28.2 µM [inhibitor, partial curve]
CC(C)Cn1c(SCC(=O)c2ccc(Cl)s2)nnc1-c1ccco1 39.8 µM [inhibitor, single point]
CCOC(=O)C1CN(S(=O)(=O)c2ccccc2)CCN1S(=O)(=O)c1ccccc1 (configuration not stated) 39.8 µM [inhibitor, single point]

activity, negative = inhibition, inactive:
COC(=O)NC(/C(C(=O)OC)=C(\C)NCc1ccccc1)c1cccs1 (configuration not stated) -0.417% [at 13.5 µM]
